# In publication PMC6919601, “Identification of Plasmodium dipeptidyl aminopeptidase allosteric inhibitors by high throughput screening” (PLoS ONE, 2019):
# Screen size: about 110,000 compounds; about 230 (0.21%) showed an effect of 50% or more. The list shows a part of the results.
# Molecular target: DPAP1 (Plasmodium falciparum, UniProt Q8IIJ9)
# Experiment: primary screen, percent inhibition; read by cleavage of a fluorogenic dipeptide substrate; higher = more effect of the substance
# Design: species or system P. falciparum D10 trophozoite lysates; single well
# 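Note: 30 min substrate incubation versus DMSO and 10 µM JCP410 controls.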
# Chain of DPAP1 (Q8IIJ9 whole entry, looked up): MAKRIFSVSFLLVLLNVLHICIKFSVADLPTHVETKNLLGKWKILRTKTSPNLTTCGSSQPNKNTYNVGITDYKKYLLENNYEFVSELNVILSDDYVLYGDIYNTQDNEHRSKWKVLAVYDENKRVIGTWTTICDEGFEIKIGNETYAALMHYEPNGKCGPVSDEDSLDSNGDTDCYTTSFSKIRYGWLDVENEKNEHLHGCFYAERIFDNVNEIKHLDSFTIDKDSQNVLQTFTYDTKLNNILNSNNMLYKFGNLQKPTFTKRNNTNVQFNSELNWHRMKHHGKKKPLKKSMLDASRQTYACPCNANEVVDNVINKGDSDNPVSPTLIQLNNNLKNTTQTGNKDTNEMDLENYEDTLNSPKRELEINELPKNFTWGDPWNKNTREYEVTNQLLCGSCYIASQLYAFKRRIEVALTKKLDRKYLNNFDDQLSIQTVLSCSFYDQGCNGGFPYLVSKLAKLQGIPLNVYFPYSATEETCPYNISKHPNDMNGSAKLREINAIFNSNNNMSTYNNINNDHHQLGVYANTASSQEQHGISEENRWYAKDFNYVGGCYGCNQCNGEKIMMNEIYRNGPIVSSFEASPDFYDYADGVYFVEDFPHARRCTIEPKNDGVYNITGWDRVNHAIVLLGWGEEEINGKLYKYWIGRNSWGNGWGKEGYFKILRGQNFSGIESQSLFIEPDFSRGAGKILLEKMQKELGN
row,Structure (SMILES),% Inhibition @ 10 uM
1,OC1CCN(C2CC3CCC2C3)CC1 (stereo not drawn),-6.62%
2,COc1ccc(N2CCN(c3ccc(-n4cnnc4O)cc3)CC2)cc1,9.53%
3,CCOC(=O)N1CCC(NC(=O)Cn2ncc3ccc(C)cc32)CC1,-1.11%
4,Brc1ccccc1CN1CCN(Cc2cccnc2)CC1,-5.69%
5,Cc1cc2c(cc1C)C(c1cc3c(cc1Br)OCO3)CC(=O)N2 (stereo not drawn),10.6%
6,COc1ccc(C(=O)NC2(C(F)(F)F)C(=O)Nc3c2c(=O)[nH]c(=O)n3-c2ccc(Cl)cc2)cc1 (stereo not drawn),1.36%
7,Cc1nn2c(=O)/c(=C/c3cn(-c4ccccc4)nc3-c3ccccc3)sc2nc1=O,-5.62%
8,CC(=O)n1nc(C)c2c1CC(C)(C)CC2=O,-4.43%
9,Nc1c(C(=O)Nc2ccccc2C(=O)O)sc2nc3c(cc12)CCCCCC3,-0.992%
10,CC(Oc1ccc(F)cc1)C(=O)Nc1ccccc1C(F)(F)F (stereo not drawn),1.28%
11,COc1ccc(C2CC3=Nc4ccccc4NC(c4cccc(O)c4)C3=C(O)C2)cc1OC (stereo not drawn),-1.37%
12,O=C(NCCc1c[nH]c2ccccc12)c1ccc2nc(N3CCCCC3)sc2c1,-2.37%
13,O=C1c2ccccc2CN1CCSC(=S)N1CCCCCC1,-5.61%
14,Nc1ncc(Br)cc1S(=O)(=O)NCCC(=O)NC1CCCc2ccccc21 (stereo not drawn),-3.42%
15,CCOC(=O)N1CCN(C(C)CCc2ccccc2)CC1 (stereo not drawn),-1.82%
16,Cc1cc(NS(=O)(=O)c2ccc(NC(=O)COc3ccc(C(C)C)cc3)cc2)nc(C)n1,-1.84%
17,CCN(CC)C(=O)CSc1nc(O)cc(=O)n1CC,1.83%
18,O=C(C1CCCN(c2nc3ccccc3n3cccc23)C1)N1CCN(Cc2ccccc2)CC1 (stereo not drawn),-0.205%
19,CCC(C(=O)NC(C)c1ccccc1)n1nc(C)n2c(cc3sccc32)c1=O (stereo not drawn),-3.35%
20,COc1cc(NC(=O)c2cc([N+](=O)[O-])ccc2Cl)c(OC)cc1Cl,-3.79%
21,C#CCOc1ccc2ccccc2c1/C=C1/NC(=O)N(Cc2ccccc2F)C1=O,-1.81%
22,CC1CCN(C(=O)C2c3ccccc3C(=O)N(C)C2c2cccs2)CC1 (stereo not drawn),-0.228%

row,Structure (SMILES),% Inhibition @ 10 uM
1,CCOc1ccc(-c2cc(/N=C(/NCc3ccco3)SC)[nH]n2)cc1,-0.551%
2,COC(=O)c1cc(S(=O)(=O)NCc2ccc(C)cc2)cn1C,5.48%
3,Cc1ccc(-c2cc(C(=O)N3CCN(C)CC3)no2)cc1,1.7%
4,CN(C)c1ccc(C2C(C(=O)c3cc4ccccc4o3)=C(O)C(=O)N2CCCn2ccnc2)cc1 (stereo not drawn),4.25%
5,Cc1ccc(NC(=O)CN2C(=O)S/C(=C\c3cccn3C)C2=O)cc1,-2.21%
6,Cc1ccccc1NC(=O)c1ccccc1O,1.83%
7,Cc1nc(NC(=O)Cn2cnc3c(=O)n(C)c(=O)n(C)c32)ccc1Br,-1.17%
8,N#Cc1ccc(Cn2cnc3ccccc3c2=O)cc1,0.528%
9,c1ccc(-c2nccnn2)cc1,-4.98%
10,COc1ccc(CC/N=C2\SCC(=O)N2Cc2ccccc2)cc1OC,-0.053%
11,Cc1c(C(=O)O)oc2c1-c1nn(Cc3c(F)cccc3Cl)cc1CC2,4.79%
12,CCC(C)Cn1c(CO)nc2ccccc21 (stereo not drawn),-0.512%
13,O=C(Nc1ccccc1)N1CCN(C/C=C/c2ccccc2)CC1,-0.192%
14,CN(C1CCCCC1)S(=O)(=O)N1CCCC(C(=O)NC2CCCCCC2)C1 (stereo not drawn),-7.53%
15,COc1cccc(OCCCCCN2CCCCC2)c1,2.94%
16,CCOC(=O)c1oc2c(c1C)-c1n[nH]cc1CC2,7.81%
17,CCOC(=O)c1c(C)c(C(=O)NCCCc2ccccc2)c(C)n1CC,0.0579%
18,COc1ccccc1CNC(=O)CCN1C(=O)c2ccccc2Sc2ncccc21,1.26%
19,O=C(NCc1ccccc1)c1cc2nc(-c3ccccc3)cc(C(F)(F)F)n2n1,1.87%
20,Cc1cccc(-c2cccc(C(=O)O)c2)c1,-4.26%
21,Cc1nn(C)c(C(=O)N2CCc3ccccc32)c1Cl,0.385%
22,Cc1ccc(N2CCN(CN3C(=O)S/C(=C/c4ccco4)C3=O)CC2)cc1,2.22%

row,Structure (SMILES),% Inhibition @ 10 uM
1,CC1CCN(Cc2c(O)nc(O)nc2O)CC1,-4.93%
2,Cc1cc(=O)oc2cc(OCC(=O)NCCO)ccc12,-6.17%
3,N#CCC(=O)N1CCN(C(c2ccccc2)c2ccccc2)CC1,-5.06%
4,CCc1ccc(CNCCSc2nnnn2-c2ccccc2)cc1,2.05%
5,Cc1ccc(S(=O)(=O)N(CC(=O)N(C)Cc2ccccc2)c2ccc(F)cc2)cc1,9.48%
6,CN(CCNC(=O)c1cc2c(-c3ccccc3F)nn(C)c2s1)C1CCCCC1,-3.94%
7,Cc1ccc(N2C(=O)CC(N3CCCCCC3)C2=O)cc1C (stereo not drawn),-5.67%
8,COc1cccc(N(CC(=O)Nc2ccc(C)cc2)S(=O)(=O)c2ccc(C)cc2)c1,1.57%
9,O=C(O)CCCc1cc2c(s1)CCC/C2=N\O,-1.74%
10,Cc1ccc(COC(=O)N[C@@H](CC(C)C)C(=O)NCC#N)c(C)c1,-1.41%
11,Cc1ccc(S(=O)(=O)NCC(=O)N2CCN(c3ccccn3)CC2)cc1,0.64%
12,Cc1cc(C(F)F)n2nc(C(=O)Nc3cccnc3Cl)nc2n1,-4.62%
13,CCC(=O)/N=C(/Nc1ccc(C)cc1)Nc1nc(C)cc(C)n1,-7.94%
14,CCCCN1CCCn2c1nc1c2c(=O)n(C)c(=O)n1C,6.07%
15,O=C1C2C3C=CC(C3)C2C(=O)N1Cc1cccnc1 (stereo not drawn),18.5%
16,NC(=O)c1nnc(Cc2ccc(Cl)cc2)o1,-5.93%
17,O=C(Nc1cc(Cl)cc(Cl)c1)c1ccc([N+](=O)[O-])cc1,1.91%
18,CCOc1ccc(N2C(=O)CC(NCc3cccc(Cl)c3)C2=O)cc1 (stereo not drawn),7.02%
19,c1ccc(N2CCN(Cc3cccnc3)CC2)nc1,-4.61%
20,CCCNC(=O)CCc1nnc2ccc(N3CCC(C)CC3)nn12,-3.73%
21,C=CCn1c(SCCCCCC)nc2c1c(=O)n(C)c(=O)n2C,-0.968%
22,COc1ccc2[nH]c(SCC(=O)Nc3cccc(C)c3)nc2c1,1.03%
